# Data published in paper PMC4336329 (PLoS ONE, 2015).
# In all, about 310,000 compounds went through this assay and about 2,200 (0.71%) showed an effect of 50% or more. Effects have a minus sign here. This is one part of the list.
# Target: human ether-à-go-go-related gene (hERG) potassium channel (human, UniProt Q12809)
# Assay: primary screen, population patch clamp on CHO cells stably expressing hERG
# Sequence of human ether-à-go-go-related gene (hERG) potassium channel (Q12809 whole entry, looked up): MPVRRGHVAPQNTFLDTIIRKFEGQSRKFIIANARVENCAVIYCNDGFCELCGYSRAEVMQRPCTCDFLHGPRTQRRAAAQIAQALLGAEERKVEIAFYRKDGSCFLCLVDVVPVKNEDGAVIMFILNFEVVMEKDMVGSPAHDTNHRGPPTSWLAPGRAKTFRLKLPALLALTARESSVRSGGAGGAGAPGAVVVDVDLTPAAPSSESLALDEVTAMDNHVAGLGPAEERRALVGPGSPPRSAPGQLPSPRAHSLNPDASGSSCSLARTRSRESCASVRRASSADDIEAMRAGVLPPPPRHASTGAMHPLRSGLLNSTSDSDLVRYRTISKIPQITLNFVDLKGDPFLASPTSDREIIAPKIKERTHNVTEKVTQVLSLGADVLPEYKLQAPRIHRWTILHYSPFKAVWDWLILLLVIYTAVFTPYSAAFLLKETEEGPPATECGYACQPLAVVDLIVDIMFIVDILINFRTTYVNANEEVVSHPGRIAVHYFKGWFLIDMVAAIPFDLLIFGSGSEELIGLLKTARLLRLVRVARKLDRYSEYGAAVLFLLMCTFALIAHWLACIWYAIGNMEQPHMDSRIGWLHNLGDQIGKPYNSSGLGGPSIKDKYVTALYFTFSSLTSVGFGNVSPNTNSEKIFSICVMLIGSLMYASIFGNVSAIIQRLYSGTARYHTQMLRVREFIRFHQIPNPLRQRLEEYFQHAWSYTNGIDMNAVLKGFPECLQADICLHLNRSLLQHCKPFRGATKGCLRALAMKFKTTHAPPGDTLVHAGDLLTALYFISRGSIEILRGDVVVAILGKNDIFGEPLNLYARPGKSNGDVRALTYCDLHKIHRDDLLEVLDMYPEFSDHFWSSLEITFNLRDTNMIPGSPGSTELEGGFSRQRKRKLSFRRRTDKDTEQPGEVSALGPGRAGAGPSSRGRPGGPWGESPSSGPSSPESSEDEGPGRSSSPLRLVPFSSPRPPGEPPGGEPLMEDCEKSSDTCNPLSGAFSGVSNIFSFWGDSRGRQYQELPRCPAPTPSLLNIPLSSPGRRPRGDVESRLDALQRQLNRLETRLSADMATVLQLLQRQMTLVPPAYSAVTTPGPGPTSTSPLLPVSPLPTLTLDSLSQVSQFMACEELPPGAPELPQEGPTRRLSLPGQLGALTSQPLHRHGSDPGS
row,Compound,"hERG current change (%, negative = inhibition) at 1uM"
1,CC(C)CC(C(=O)Nc1oc(-c2ccco2)c(-c2ccco2)c1C#N)N1C(=O)c2ccccc2C1=O (stereo not drawn),13.4%
2,COc1cc(C(=O)NCCC(=O)NC2CCC(C)CC2)cc(OC)c1OC (stereo not drawn),21.7%
3,CC(Cc1ccco1)NC(=O)c1ccc(C(F)(F)F)cc1 (stereo not drawn),23.1%
4,CNC(=O)CSc1nc2[nH]ncc2c(=O)[nH]1,6.71%
5,Cc1cc(C)nc(SCC(=O)NC2CCCC2)n1,1.7%
6,N#C/C(N=Nc1ccccc1O)=N\Nc1ccccc1O,12.8%
7,COc1cc(OC)c(-c2nnc(-c3ccc(OC)c(OC)c3OC)o2)cc1OC,11.7%
8,CCC(=O)Nc1ccc2c(c1)ncn2-c1ccccc1C,-2.01%
9,O=C(COC(=O)CNC(=O)c1ccc(Cl)cc1Cl)Nc1ccc(N2CCOCC2)cc1,13.7%
10,COc1ccc(C2c3c(ncn(CCCN4CCOCC4)c3=N)Oc3ccc4ccccc4c32)cc1OC (stereo not drawn),-8.02%
11,Cc1cc(NC(=O)CCC(=O)N(CC(=O)NC2CCCC2)c2ccc(C(C)C)cc2)no1,-11.6%
12,O=C(NCC(=O)c1ccccc1)OCc1ccc([N+](=O)[O-])cc1,6.14%
13,c1ccc(-c2cn3nc(-c4ccccc4)sc3n2)cc1,-4.04%
14,[Br-].c1ccc(N2CC[N+]3(CCCC3)CC2)nc1,4.94%
15,Cc1c(Cl)cccc1NC(=O)NCCCN1CCCC1=O,8.07%
16,CN1CCCC1CCNS(=O)(=O)c1ccc(Br)cc1 (stereo not drawn),-0.753%
17,O=C(CCCc1nc(-c2ccc(Cl)cc2)no1)NCC1CCCO1 (stereo not drawn),7.37%
18,O=C(CC(NC(=O)c1ccccc1Cl)c1ccccc1)NCCc1ccc(Cl)cc1 (stereo not drawn),10.8%
19,Cc1cc(-c2cc(-c3ccccc3)on2)nc(NC2CCCC2)n1,17.1%
20,O=C(C1=C(O)C(=O)N(c2nccs2)C1c1ccccc1)c1cc2ccccc2o1 (stereo not drawn),22.2%
21,O=C(NC(Cc1ccccc1)C(=O)O)/C(=C\c1ccc(F)cc1)NC(=O)c1ccccc1 (stereo not drawn),23.8%
22,COc1ccc(N=Cc2c(O)c3ccccc3n2C(C)=O)cc1,9.51%
23,COc1ccc(Cl)cc1NC(=O)CN(C)C(=O)Cn1[nH]c(=O)c2ccccc2c1=O,4.24%

row,Compound,"hERG current change (%, negative = inhibition) at 1uM"
1,COc1ccc(-c2cccc(NC(=O)c3ccc4c(c3)OCO4)c2)nn1,12.6%
2,CCN1CCN(C(=O)c2cc3sccc3n2CC(=O)c2ccccc2)CC1,-22.1%
3,COC(=O)c1cc(S(=O)(=O)NCCCc2ccco2)c[nH]1,5.52%
4,COc1ccccc1NC(=O)Cc1cccs1,-0.824%
5,COc1cccc(C(=O)OCCNC(=O)c2cccnc2)c1.Cl,10.5%
6,CC(C)Cc1nc(N2CCN(C(=O)C(C)C)CC2)c(C#N)c2c1CCC2,7.49%
7,O=C(CNc1cc(S(=O)(=O)N2CCOCC2)ccc1N1CCCC1)N1CCc2ccccc21,6.29%
8,COc1cccc(CN2CCN(Cc3cccc4nonc34)CC2CCO)c1 (stereo not drawn),-24%
9,COCCNC(=O)C(c1ccccc1F)N(C(=O)C(=O)NC1CCCC1)C1CCCCC1 (stereo not drawn),3.99%
10,Cc1cc(-c2ccccc2)nc(N(C)N)c1S(C)(=O)=O,12.6%
11,O=C(CC(SCCO)c1ccc([N+](=O)[O-])cc1)c1ccco1 (stereo not drawn),-0.704%
12,OC1(c2ccc(Br)cc2)CCNCC1,-2.9%
13,COC(=O)CC1Nc2ccccc2SC1=O (stereo not drawn),4.03%
14,Cc1c(Cl)c(C(=O)NC2CCCC2)nn1C,-5.44%
15,Cc1c(Cl)cccc1N1C(=O)NC(=O)/C(=C\c2cc(C)n(-c3cccc(C(=O)O)c3C)c2C)C1=O,11.1%
16,CCCCC(=O)NC(NC(=O)CCCC)c1ccc(OCC(C)C)c(OC)c1,9.77%
17,CCN1C(=S)N[C@@H](c2cccc(F)c2)C(C(=O)OC)=C1C,9%
18,Cc1oc(-c2cc3c(cc2Cl)OCO3)nc1CN1CCCC1c1ccc(F)cc1 (stereo not drawn),-2.74%
19,CSCC(=O)Nc1ccc(F)c(Cl)c1,15.6%
20,COc1ccc(N2CCN(CC(=O)Nc3sccc3C#N)CC2)cc1,5.49%
21,Cc1cccc(-c2nc3ccc(C(=O)N4CCC5(CC4)OCCO5)cc3nc2-c2cccc(C)c2)c1,17.4%
22,S=C(Nc1ccc2c(c1)OCO2)Nc1ccc2c(c1)OCO2,13.4%
23,COc1ccc(CCNC(=O)c2cn(C)c3ccc(S(=O)(=O)N4CCOCC4)cc3c2=O)cc1OC,16.8%

row,Compound,"hERG current change (%, negative = inhibition) at 1uM"
1,Cc1ccc(C2N(C)C(=O)c3ccccc3N2C)cc1 (stereo not drawn),9.12%
2,COc1ccc(N2CC(C(=O)NC3CCSC3=O)CC2=O)cc1 (stereo not drawn),7%
3,O=[N+]([O-])c1ccc(CN2CCCCCC2)s1,8.77%
4,Cc1nn(C)c(C)c1CN(C)C(=O)C1c2ccccc2Oc2ccccc21,-2.61%
5,COc1cccc(C(=O)Nc2ccccc2N2CCCC2)c1,-0.367%
6,Cc1ccc(O)c(-c2cc(-c3cccc(Br)c3)n[nH]2)c1,7.07%
7,Cc1cc(/C=N/NC(N)=S)c(C)n1-c1ccc(Cl)c(Cl)c1,2.25%
8,C=C(C)c1cccc(C(C)(C)NC(=O)Nc2ncccn2)c1,-1.24%
9,FC(F)(F)c1cnc(C(c2ccccn2)c2ncn[nH]2)c(Cl)c1 (stereo not drawn),8.81%
10,COc1ccc(/C(N)=N/OC(=O)c2cccc([N+](=O)[O-])c2C)cc1,-7.56%
11,O=C(O)[C@H]1CCCC[C@H]1C(=O)Nc1ccc(S(=O)(=O)N2CCCCC2)cc1,2.43%
12,O=C(Nc1ccc2c(c1)OCCO2)c1ccco1,6.27%
13,Cc1ccc(S(=O)(=O)N2CCOCC2)cc1NC(=O)COC(=O)CNC(=O)c1ccc(C(C)(C)C)cc1,20.2%
14,COc1ccc(-c2nnc(SCC(=O)N3CCCc4ccccc43)o2)cc1OC,1.96%
15,O=C(O)Cn1nnc(-c2ccc(OCc3ccccc3Cl)cc2)n1,19.4%
16,CN(C)CCCNc1ccc(-c2n[nH]c(=O)c3ccccc23)cc1[N+](=O)[O-],13%
17,CC(=O)c1sc(NC(=O)CCCc2nc3ccccc3c(=O)[nH]2)nc1-c1ccccc1,12.2%
18,O=C(CCn1c(=S)[nH]c2ccccc2c1=O)NCCCN1CCOCC1,-0.109%
19,Cc1cccc(CN2CCN(C(=O)CCl)CC2)c1,7.13%
20,Cc1ccc2c(c1)C=CC(C)(C)S2=O (stereo not drawn),14.8%
21,CC(C)CC(=O)Nc1cc2nn(-c3ccccc3)nc2cc1Cl,-0.947%
22,CCOC(=O)C1=C(C)Nc2nc(C)nn2C1c1ccc(OCC)c(OC)c1 (stereo not drawn),11.4%
23,Cc1cnc(NC(=O)CSc2nnc(-c3ccc(Cl)cc3Cl)n2N)s1,-0.0109%

row,Compound,"hERG current change (%, negative = inhibition) at 1uM"
1,O=C(NCc1cccs1)C12CC3CC(CC(C3)C1)C2,13.3%
2,COc1ccccc1CN(C)C(=O)C(c1ccccc1)c1ccccc1,5.39%
3,O=C(Nc1ccc(N2CCCCC2)cc1)c1cncc(Br)c1,17.7%
4,C/C=C/C(=O)OCc1csc(CC(=O)Nc2ccccc2C)n1,10.5%
5,c1ccc(COn2c(-c3ccccc3)nc3c2CCc2nonc2-3)cc1,15.7%
6,COC(=O)C1CCN(S(=O)(=O)CCNC(=O)c2cccc(OC)c2)CC1,-1.58%
7,COc1cccc(NC(=O)COC(=O)CCOc2ccccc2OC)c1,2.42%
8,Cc1ccc(NC(=O)c2ccc(N3CCCC3=O)cc2)cc1S(=O)(=O)N1CCCCC1,5.81%
9,CN(C)S(=O)(=O)c1ccc(NC(=O)Cn2ccsc2=N)cc1,12.4%
10,Cc1ccc(NC(=O)c2sc3nc(N4CCOCC4)c4c(c3c2N)CC(C)(C)OC4)cc1,9.91%
11,Cc1ccc(NS(=O)(=O)c2ccc(CCC(=O)NCCCOC(C)C)cc2)cc1,15.2%
12,O=C(NCc1ccncc1)C12CC3CC(CC(C3)C1)C2,5.26%
13,Cc1ccc(S(=O)(=O)N(C)C)cc1-n1c(SCC(=O)Nc2ccc(F)cc2Cl)nc2ccccc2c1=O,2.16%
14,c1ccc(OCc2noc(CN3CC[C@@H]4CCCC[C@H]4C3)n2)cc1,6.6%
15,O=C(NCC(c1cccnc1)N1CCN(c2ccc(F)cc2)CC1)c1ccco1 (stereo not drawn),4.97%
16,OCCC1CN(Cc2cccnc2)CCN1CCc1ccccc1 (stereo not drawn),1.79%
17,Cc1nnc(SCC(=O)Nc2cccc(Br)c2)s1,1.84%
18,COc1ccc(/C=C/C(=O)OCC(=O)NCc2ccco2)cc1OC,0.173%
19,Cn1c(NC(=O)C[n+]2cc(-c3ccc(F)cc3)n3c2CCC3)cc(=O)n(C)c1=O.[Cl-],2.56%
20,CCCOc1ccc(C2=NNC(=O)CC2)cc1,14%
21,O=C(CCn1cnc2ncccc2c1=O)N1CCN(c2cccc(Cl)c2)CC1,6.47%
